Experiment [1] deals with T1, R132H IDH1 (Homo sapiens, UniProt O75874, R132H).
T1 construct: made in house; host or cells: Escherichia coli BL21(DE3) pLyS
Description: Non-denaturing protein MS, R132H IDH1. Format: binding.

In experiment [2] the test system is R132H IDH1. The settings on record: cited from earlier work; for IC50: read-out: IC50.
In experiment [3] the test system is LN18 glioblastoma cells stably overexpressing R132H IDH1. Description: Intracellular 2HG levels by AEC-MS in inhibitor-treated LN18 cells. The following applies: AGI-5198 (1 µM) or GSK864 (100 nM), 0.05–10 mM MgSO4, 19 h.
Experiment [4] addresses T1, R132H IDH1. Description: CPMG-edited 1H NMR ligand binding, R132H IDH1.
The target of experiment [5] is T1, R132H IDH1. Description: Absorbance assay: kinetics of reductive reaction (2OG to 2HG) by R132H IDH1. Format: biochemical.
Experiment [6] addresses T1, R132H IDH1. Description: Differential scanning fluorimetry (DSF) thermal shift, R132H IDH1. The following applies: R132H IDH1, divalent metal ions (5 mM), 50 mM Tris-HCl, pH 7.5. It counts as binding.
The target of experiment [7] is T1, R132H IDH1. Description: Absorbance assay: effect of metal ions on catalysis and inhibition of R132H IDH1. The settings on record: R132H IDH1, metal ions 10 mM in the presence of 10 mM Mg^2+. Format: biochemical.
Experiment [8] deals with T1, R132H IDH1. Description: 1H NMR reaction monitoring, R132H IDH1. Format: biochemical. The following applies: R132H IDH1, 10 mM CaCl2, equimolar to Mg2+.
Where [9] appears, read: R132H IDH1, reductive reaction (2OG to 2HG) with Mg^2+ (10 mM MgCl2).
Setting [10] is: R132H IDH1, reductive reaction (2OG to 2HG) with Mn^2+ (10 mM MnCl2).

“And” between values parts separate entries of the source, which are not always exact repeats. Equal entries are not always repeated.

T1 sequence (O75874 2-414 R132H): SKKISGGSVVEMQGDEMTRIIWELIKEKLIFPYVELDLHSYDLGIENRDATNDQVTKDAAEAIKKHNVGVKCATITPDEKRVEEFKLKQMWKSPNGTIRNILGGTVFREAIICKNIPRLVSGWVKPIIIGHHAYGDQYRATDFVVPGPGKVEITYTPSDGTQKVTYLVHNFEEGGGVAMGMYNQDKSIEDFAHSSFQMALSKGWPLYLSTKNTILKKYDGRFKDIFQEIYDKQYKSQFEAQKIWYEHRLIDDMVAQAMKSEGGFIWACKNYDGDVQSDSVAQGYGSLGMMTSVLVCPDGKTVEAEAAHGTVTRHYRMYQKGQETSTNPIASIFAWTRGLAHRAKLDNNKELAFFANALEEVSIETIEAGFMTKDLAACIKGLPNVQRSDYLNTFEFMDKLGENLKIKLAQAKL

In the case of `COc1c(C)cc(NC(=O)c2nn(Cc3ccc(F)cc3)c3c2CN(C(=O)c2ccc[nH]2)C[C@]3(C)C(N)=O)cc1C` [GSK864], the binding stoichiometry entry on R132H IDH1 [1] (R132H IDH1 dimer with two NADPHs bound) was “two inhibitors per IDH1 dimer”. In addition, the “effect of inhibitor addition on 2OG/NOG binding to R132H IDH1” value at R132H IDH1 [1] (without divalent metal ions) is “does not affect”. Besides, in the experiment with R132H IDH1 [2], the half-maximal inhibitory concentration (IC50) is 4.6 nM. In experiment [3], the “2HG production by R132H IDH1 in cells” value is given as “substantially suppressed 2HG production”. Further, at R132H IDH1 [4] (with Mg^2+ or Ca^2+ (10 mM), inhibitor 50 µM), the “effect on binding of 2OG/NOG with R132H IDH1” value was “weakens the binding”.

With `O=C(O)CCC(=O)C(=O)O` [2OG, 2-oxoglutarate], the Velocity on R132H IDH1 [5] (Fig. S2j, [2OG] 375 μM) was 0.09335 µM/s and 0.1062 µM/s and 0.0565 µM/s; at R132H IDH1 [5] (Fig. S2j, [2OG] 750 μM), 0.1098 µM/s and 0.12 µM/s and 0.1458 µM/s; on R132H IDH1 [5] (Fig. S2j, [2OG] 1500 μM), 0.1295 µM/s and 0.1974 µM/s and 0.2025 µM/s; at R132H IDH1 [5] (Fig. S2j, [2OG] 6000 μM), 0.2211 µM/s and 0.2241 µM/s and 0.2171 µM/s; at R132H IDH1 [5] (Fig. S2j, [2OG] 12000 μM), 0.213 µM/s and 0.2257 µM/s and 0.2451 µM/s; on R132H IDH1 [5] (Fig. S2j, [2OG] 24000 μM), 0.1965 µM/s and 0.2179 µM/s and 0.2281 µM/s. Also, the Velocity at R132H IDH1 [5] (Fig. S3g, MnCl2 as metal, [2OG] 46.875 μM) was 0.04966 µM/s and 0.05457 µM/s; on R132H IDH1 [5] (Fig. S3g, MnCl2 as metal, [2OG] 187.5 μM), 0.2372 µM/s and 0.2213 µM/s and 0.2255 µM/s; at R132H IDH1 [5] (Fig. S3g, MnCl2 as metal, [2OG] 375 μM), 0.2908 µM/s and 0.2809 µM/s and 0.2852 µM/s; on R132H IDH1 [5] (Fig. S3g, MnCl2 as metal, [2OG] 750 μM) it was 0.3538 µM/s and 0.3262 µM/s and 0.3736 µM/s; on R132H IDH1 [5] (Fig. S3g, MnCl2 as metal, [2OG] 1500 μM), 0.3806 µM/s and 0.3297 µM/s; at R132H IDH1 [5] (Fig. S3g, MnCl2 as metal, [2OG] 3000 μM), 0.3213 µM/s and 0.3264 µM/s and 0.3318 µM/s. Further, the Km on R132H IDH1 [5] (setting [9]) was 652 ± 116 µM; at R132H IDH1 [5] (setting [10]), 175 ± 26 µM. For the same compound, the Vmax at R132H IDH1 [5] (setting [9]) amounted to 236 ± 10 nM/s; on R132H IDH1 [5] (setting [10]), 390 ± 16 nM/s. Besides, the “molecules observed to bind to the R132H IDH1 dimer” value on R132H IDH1 [1] (without divalent metal ions, tenfold molar excess) is recorded as “one”. The “binding to R132H IDH1” value at R132H IDH1 [4] (without metal ions, NMR, non-denaturing MS, DSF) is “bind weakly”.

For `Cc1ccccc1C(C(=O)NC1CCCCC1)N(C(=O)Cn1ccnc1C)c1cccc(F)c1` (centres unmarked) [AGI-5198], in the experiment with R132H IDH1 [2], the mode of inhibition result is on record as “competitive with 2OG” and the 50% inhibitory concentration (IC50) was 70 nM. Moreover, the “2HG production by R132H IDH1 in cells” value in experiment [3] was “substantially suppressed 2HG production”.

As to `[Ca+2].[Cl-].[Cl-]` [Ca^2+, CaCl2], at R132H IDH1 [6], the “thermal shift (shift in Tm)” value is −1.2 °C. Further, the “inhibition by metal ion” value on R132H IDH1 [7] is “inhibiting”. Also, the “activity/inhibition in conversion of 2OG to 2HG” value on R132H IDH1 [8] was “not catalytically active and inhibits”.

As a reminder, the IC50 is the concentration at which inhibition is half-maximal. The term Km denotes the concentration of substrate that gives half-maximal velocity. One may read the Vmax as the rate approached at saturating substrate.
